The experiment addresses T1, mTOR (Homo sapiens, UniProt P42345).
T1 construct: FLAG; made in house
The experiment in a line: In Vitro mTOR Kinase Assay (AlphaScreen), Test (a)(i). The conditions noted are these: read-out: IC50 versus mTOR kinase. It counts as biochemical. From the text: (a)(i) In Vitro mTOR Kinase Assay
The assay used AlphaScreen technology (Gray et al., Analytical Biochemistry, 2003, 313: 234-245) to determine the ability of test compounds to inhibit phosphorylation by recombinant mTOR.
A C-terminal truncation of mTOR encompassing amino acid residues 1362 to 2549 of mTOR (EMBL Accession No. L34075) was stably expressed as a FLAG-tagged fusion in HEK293 cells as described by Vilella-Bach et al., Journal of Biochemistry, 1999, 274, 4266-4272. […]
Each reaction was stopped by the addition of 10 μl of a mixture of EDTA (50 mM), bovine serum albumin (BSA; 0.5 mg/mL) and Tris-HCl pH 7.4 buffer (50 mM) containing p70 S6 Kinase (T389) 1A5 Monoclonal Antibody (Cell Signalling Technology, Catalogue No. 9206B) and AlphaScreen Streptavidin donor and Protein A acceptor beads (200 ng; Perkin Elmer, Catalogue No. 6760002B and 6760137R respectively) were added and the assay plates were left for about 20 hours at room temperature in the dark. The resultant signals arising from laser light excitation at 680 nm were read using a Packard Envision instrument.
Phosphorylated biotinylated peptide is formed in situ as a result of mTOR mediated phosphorylation. […] Upon laser light excitation at 680 nm, the donor bead: acceptor bead complex produces a signal that can be measured. […]
mTOR enzyme inhibition for a given test compound was expressed as an IC50 value.

Not every entry of the source has a single result; some have several. This list holds those alone. The source may hold further records. Values that stand side by side read as repeated measurements on other runs, samples or individuals; one of them may be the mean.

T1 sequence (P42345 1362-2549): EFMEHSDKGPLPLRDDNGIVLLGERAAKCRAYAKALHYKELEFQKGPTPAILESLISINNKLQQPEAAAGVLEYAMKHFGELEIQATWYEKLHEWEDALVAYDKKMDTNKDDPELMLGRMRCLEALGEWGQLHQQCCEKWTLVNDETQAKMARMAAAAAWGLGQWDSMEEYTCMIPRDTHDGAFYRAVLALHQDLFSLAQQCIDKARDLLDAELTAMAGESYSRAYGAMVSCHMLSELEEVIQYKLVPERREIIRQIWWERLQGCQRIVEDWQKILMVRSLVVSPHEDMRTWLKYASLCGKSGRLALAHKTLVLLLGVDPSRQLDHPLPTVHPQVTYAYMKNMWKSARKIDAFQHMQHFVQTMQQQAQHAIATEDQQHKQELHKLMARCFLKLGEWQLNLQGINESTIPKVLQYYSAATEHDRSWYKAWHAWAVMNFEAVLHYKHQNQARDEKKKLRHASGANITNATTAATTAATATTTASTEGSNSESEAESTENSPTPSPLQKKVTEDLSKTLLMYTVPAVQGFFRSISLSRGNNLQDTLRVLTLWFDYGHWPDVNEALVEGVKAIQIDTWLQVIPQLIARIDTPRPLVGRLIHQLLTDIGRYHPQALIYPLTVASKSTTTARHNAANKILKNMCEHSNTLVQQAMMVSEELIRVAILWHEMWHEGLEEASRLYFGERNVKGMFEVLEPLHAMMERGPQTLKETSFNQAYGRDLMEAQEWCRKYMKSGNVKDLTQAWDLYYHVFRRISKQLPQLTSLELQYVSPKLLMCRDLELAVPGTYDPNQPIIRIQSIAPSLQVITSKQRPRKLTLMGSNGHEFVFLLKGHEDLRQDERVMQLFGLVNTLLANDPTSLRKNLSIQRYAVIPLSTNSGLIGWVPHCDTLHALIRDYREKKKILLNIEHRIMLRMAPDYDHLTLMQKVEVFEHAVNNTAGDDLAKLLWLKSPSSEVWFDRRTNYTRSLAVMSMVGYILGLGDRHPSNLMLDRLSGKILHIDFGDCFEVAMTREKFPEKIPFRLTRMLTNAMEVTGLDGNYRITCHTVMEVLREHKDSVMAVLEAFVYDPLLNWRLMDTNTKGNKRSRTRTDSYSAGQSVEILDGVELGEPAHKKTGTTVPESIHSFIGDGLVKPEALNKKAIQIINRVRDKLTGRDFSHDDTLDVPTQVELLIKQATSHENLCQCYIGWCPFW

As usually defined, the IC50 is the concentration that gives 50% inhibition. Take `C[C@H]1COCCN1c1cc(C2(S(C)(=O)=O)CC2)nc(-c2ccc(NC(=O)Nc3cnn(C)c3)cc2)n1` [Example 2b, 1-[4-[4-[(3S)-3-methylmorpholin-4-yl]-6-(1-methylsulfonylcyclopropyl)pyrimidin-2-yl]phenyl]-3-(1-methylpyrazol-4-yl)urea]: the half-inhibitory concentration (IC50) was 59 nM, 5 nM, 23 nM [one passage].

The values are drawn from patent publication US20090018134A1, “Compounds - 945” (AstraZeneca AB, priority 2007, published 2009).
